The other results are listed elsewhere or left out. Cleavage of a single-stranded DNA pool by Rep nickase domains was read by sequencing at 3 µM enzyme and 37 °C for 1 h; the strands have 90 letters, of which the middle is given. A value is the log2 ratio of uncut reads to the pool without enzyme; uncut sequences lie near 0, cut ones below; no hit call is given. Shares of all reads are compared; uncut strands gain when others are lost, and binding without cutting may add a little.
What was measured:
Test in all cases: uncleaved DNA left, log2 of reads against the no-enzyme library (log2 ratio); higher = less cleavage (more negative = more Rep cleavage of the k-mer); sequences stand for … in CTCGTCCG…ACCGGAGA
[1] = system: T1, Rep nickase domain of Muscovy duck circovirus
T1 sequence (Rep 1-111, printed without the tag): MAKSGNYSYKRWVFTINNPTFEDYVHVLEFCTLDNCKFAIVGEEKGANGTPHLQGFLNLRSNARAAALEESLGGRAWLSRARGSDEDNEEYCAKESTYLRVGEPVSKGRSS
Method: (§1)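 A pool of 90-nt single-stranded DNAs with seven random bases just before the constant AC of the nick site (name = the seven bases) was cut by 3 µM recombinant His6-SUMO-tagged Rep nickase domain (300 nM DNA, 50 mM HEPES pH 8.0, 50 mM NaCl, 1 mM MnCl2, 1 h, 37 °C, three replicates). Uncut DNA was amplified and sequenced.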

[2] = system: T2, Rep nickase domain of banana bunchy top virus
T2 sequence (Rep 1-94, printed without the tag): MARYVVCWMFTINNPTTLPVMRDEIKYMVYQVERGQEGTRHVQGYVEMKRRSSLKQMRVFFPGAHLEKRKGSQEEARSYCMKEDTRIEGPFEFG
Method: as §1

[3] = system: T3, Rep nickase domain of cabbage leaf curl virus
T3 sequence (Rep 1-116, printed without the tag): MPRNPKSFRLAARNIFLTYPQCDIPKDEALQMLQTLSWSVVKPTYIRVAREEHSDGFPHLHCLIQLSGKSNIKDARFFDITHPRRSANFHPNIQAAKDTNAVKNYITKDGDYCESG
Method: as §1

[4] = system: T4, Rep nickase domain of chickpea chlorotic dwarf virus
T4 sequence (Rep 1-124, printed without the tag): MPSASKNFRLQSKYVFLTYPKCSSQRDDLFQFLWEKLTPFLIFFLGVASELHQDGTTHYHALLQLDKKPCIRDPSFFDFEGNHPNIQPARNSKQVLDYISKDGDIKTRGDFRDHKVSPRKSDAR
Method: as §1

[5] = system: T5, Rep nickase domain of faba bean necrotic yellows virus
T5 sequence (Rep 1-98, printed without the tag): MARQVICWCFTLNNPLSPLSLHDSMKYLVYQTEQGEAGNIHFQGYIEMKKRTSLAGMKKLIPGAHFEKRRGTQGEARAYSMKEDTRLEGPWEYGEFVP
Method: as §1

[6] = system: T6, Rep nickase domain of maize striate mosaic virus
T6 sequence (Rep 1-117, printed without the tag): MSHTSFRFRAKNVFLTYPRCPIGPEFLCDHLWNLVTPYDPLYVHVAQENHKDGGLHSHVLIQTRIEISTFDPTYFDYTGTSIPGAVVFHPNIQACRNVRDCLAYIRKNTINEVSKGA
Method: as §1

[7] = system: T7, Rep nickase domain of porcine circovirus 2
T7 sequence (Rep 2-116, printed without the tag): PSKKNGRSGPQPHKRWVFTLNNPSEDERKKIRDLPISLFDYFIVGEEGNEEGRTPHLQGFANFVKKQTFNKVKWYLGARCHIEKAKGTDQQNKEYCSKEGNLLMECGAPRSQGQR
Method: as §1

[8] = system: T8, Rep nickase domain of tomato golden mosaic virus
T8 sequence (Rep 1-124, printed without the tag): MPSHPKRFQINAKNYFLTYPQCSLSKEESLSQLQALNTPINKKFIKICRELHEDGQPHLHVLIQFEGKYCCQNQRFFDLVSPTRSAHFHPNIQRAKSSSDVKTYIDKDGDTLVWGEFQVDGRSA
Method: as §1

[9] = system: T9, Rep nickase domain of tomato yellow leaf curl virus
T9 sequence (Rep 1-136, printed without the tag): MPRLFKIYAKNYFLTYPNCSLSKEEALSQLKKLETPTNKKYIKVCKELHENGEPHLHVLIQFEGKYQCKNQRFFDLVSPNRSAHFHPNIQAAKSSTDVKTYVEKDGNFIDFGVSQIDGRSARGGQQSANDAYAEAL
Method: as §1

[10] = system: T10, Rep nickase domain of wheat dwarf virus
T10 sequence (Rep 1-137, printed without the tag): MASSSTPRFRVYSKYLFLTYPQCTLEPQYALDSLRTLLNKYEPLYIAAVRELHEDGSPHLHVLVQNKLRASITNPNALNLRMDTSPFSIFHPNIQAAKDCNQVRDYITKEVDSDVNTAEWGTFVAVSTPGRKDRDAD
Method: as §1

| Sequence | uncleaved DNA left (log2) [1] | uncleaved DNA left (log2) [2] | uncleaved DNA left (log2) [3] | uncleaved DNA left (log2) [4] | uncleaved DNA left (log2) [5] | uncleaved DNA left (log2) [6] | uncleaved DNA left (log2) [7] | uncleaved DNA left (log2) [8] | uncleaved DNA left (log2) [9] | uncleaved DNA left (log2) [10] |
| --- | --- | --- | --- | --- | --- | --- | --- | --- | --- | --- |
| ACGAGGT | 0.00995 | -0.0701 | 0.0909 | 0.218 | -0.0923 | -0.13 | 0.0701 | 0.0385 | -0.0429 | -0.119 |
| CTCGCTG | 0.0134 | -0.0124 | 0.195 | 0.642 | -0.00559 | 0.866 | 0.0714 | 0.0606 | -0.118 | -0.0625 |
| CACGTAC | -0.0606 | -0.196 | -0.368 | -0.311 | -0.0603 | -0.777 | -0.0371 | -0.145 | -0.156 | -0.066 |
| TAGTTAA | 0.0472 | 0.0291 | 0.0644 | -0.666 | 0.0227 | -0.156 | -2.66 | 0.0876 | 0.000173 | 0.0514 |
| CTGTTAT | -0.149 | -0.179 | -0.0709 | -0.805 | -0.00271 | -0.358 | -2.33 | -0.216 | -0.0628 | -0.176 |
| CCACACT | 0.11 | 0.0494 | -0.862 | -2.83 | 0.0225 | -0.836 | -0.3 | -0.0862 | 0.0603 | -0.457 |
| ACACTAA | -0.0404 | -0.0281 | -0.206 | -0.602 | 0.146 | -0.791 | 0.145 | 0.0555 | -0.151 | -0.115 |
| AGTTTGG | 0.171 | 0.113 | -0.219 | -0.203 | 0.185 | -0.933 | 0.181 | 0.0502 | 0.0518 | 0.143 |
| GTTGTCG | -0.112 | -0.09 | -0.694 | -0.302 | -0.121 | -0.809 | 0.0939 | -0.125 | -0.043 | -0.107 |
| GCTGCTC | -0.0251 | -0.00258 | -0.00645 | 0.351 | 0.0936 | 0.313 | 0.128 | 0.0485 | 0.047 | -0.0886 |
| AACATCC | -0.0226 | -0.122 | -0.073 | -0.407 | 0.015 | -0.556 | 0.0256 | -0.0593 | -0.0659 | -0.0298 |
| TGTGCGT | 0.0557 | -0.152 | -0.813 | -0.192 | -0.0395 | -0.888 | -0.00261 | -0.0762 | -0.0895 | -0.216 |
| AATAGTG | 0.026 | -0.00772 | -0.622 | -0.737 | 0.0363 | -1.17 | 0.153 | -0.0977 | 0.00758 | -0.0687 |
| GTTTAAG | -0.0114 | -0.0425 | -0.288 | -0.37 | -0.0862 | -0.886 | 0.0807 | 0.0487 | 0.0414 | -0.0634 |
| GCTGCTG | -0.142 | -0.0618 | 0.12 | 0.801 | -0.0886 | 0.91 | 0.0989 | 0.0244 | -0.113 | -0.128 |
| TTTGATT | -0.416 | -0.117 | -0.17 | -2.27 | -0.057 | -0.59 | -2.03 | -0.0711 | -0.0027 | -0.18 |
| CATTATA | -1.25 | -1.69 | -0.203 | -2.8 | 0.0583 | -0.96 | -1.61 | 0.136 | 0.101 | 0.0241 |
| TACAAGT | 0.0482 | 0.0328 | -0.148 | -1.56 | 0.053 | -0.796 | -1.22 | 0.12 | 0.13 | -0.014 |
| CGTATGT | -0.0924 | -0.0863 | -0.075 | -0.0456 | 0.00934 | -0.136 | -0.507 | -0.2 | -0.104 | -0.0111 |
| ATATGCA | -0.0737 | -0.0681 | -0.624 | -0.987 | 0.0702 | -1.17 | -0.0125 | 0.0537 | 0.111 | -0.0509 |
| GTGTACG | 0.0793 | 0.093 | -0.382 | -0.174 | 0.107 | -0.443 | 0.116 | 0.0376 | 0.113 | 0.000264 |
| CCTTGGT | -0.101 | -0.0113 | -0.0229 | -0.349 | 0.0879 | -0.538 | -0.922 | -0.0556 | 0.0964 | 0.0162 |
| GATCGCG | -0.0631 | -0.138 | -0.777 | 0.704 | -0.0399 | -0.505 | 0.0444 | -0.169 | -0.0112 | -0.107 |
| CAAACCA | -0.203 | -0.0218 | -0.402 | -2.63 | -0.0108 | -0.842 | -0.5 | -0.127 | -0.0216 | -0.0557 |
| AGGATGT | 0.0874 | 0.0478 | 0.448 | 1.28 | 0.0702 | 1.54 | 0.161 | 0.0721 | -0.00054 | 0.0659 |
| CCGCTCG | -0.15 | -0.152 | -0.822 | -0.282 | -0.298 | -0.722 | -0.0437 | -0.144 | -0.301 | -0.196 |
| CAACGTT | -0.0288 | -0.181 | -2.06 | -3.18 | -0.04 | -0.936 | -0.888 | -0.181 | -0.026 | -0.753 |
| CTTGTGA | 0.122 | -0.0411 | -0.597 | -0.649 | 0.0657 | -1.18 | 0.154 | -0.128 | -0.00754 | -0.14 |
| CCCGTAT | 0.0128 | -0.0202 | 0.209 | -0.391 | 0.139 | -0.141 | 0.135 | 0.209 | 0.072 | -0.0141 |
| TATTTCT | -3.84 | -3.95 | -2.15 | -3.06 | -0.306 | -0.805 | -3.99 | -0.721 | 0.0834 | -0.759 |
